In data set [1] the target is T1, human pro-myostatin (Homo sapiens, UniProt O14793). In words: Biacore 8k SPR binding affinity, human pro-myostatin. An excerpt: (§1) The Biacore™ 8k SPR system was utilized to evaluate the binding affinity of myostatin antibodies to biotinylated human, murine, and cyno pro-myostatin. Biotin CAPture kit and sensor chips (Cytiva) were utilized in these experiments to immobilize the various antigens, followed by flowing a range of concentrations of each of the test antibodies.
(SPR reads the build-up and loss of mass on a sensor chip optically.)

The target in data set [2] is murine pro-myostatin (Mus musculus, UniProt O08689). In words: Biacore 8k SPR binding affinity, murine pro-myostatin.
Excerpt: as §1

Data set [3] concerns the target cyno pro-myostatin (Macaca fascicularis, UniProt Q95J86). In words: Biacore 8k SPR binding affinity, cyno pro-myostatin. Set-up: species or system cynomolgus monkey.
Excerpt: as §1

Data set [4] in a line: AC-SINS self-interaction (aggregation behavior). The following applies: cutoff: shift of >5 nm in plasmon wavelength. It is filed as physicochemical. Summed up:
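Antibodies captured on gold nanoparticles coated with anti-human polyclonal antibodies; self-association read as red shift of plasmon wavelength from 530 nm (unaggregated). Shift >5 nm taken as cutoff for self-interaction.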

Data set [5] is described as follows: dexamethasone-induced muscle atrophy mouse model. It is filed as in vivo. The following applies: dexamethasone treated mice. An excerpt:
To evaluate in vivo efficacy of the novel myostatin-selective inhibitors disclosed herein, the ability of the antibodies to preserve lean muscle mass was examined in a dexamethasone-induced atrophy mouse model. An excess of glucocorticoids directly stimulates myostatin production via interactions with a glucocorticoid response element in the myostatin promoter, thus inducing loss of muscle mass. As shown herein, antibodies of the disclosure prevented glucocorticoid-induced muscle atrophy.
C57BL6 male mice (n=8) at 13-14 weeks of age were given normal drinking water or water containing dexamethasone at a concentration of 2.5 mg/kg (17.5 grams dexamethasone per liter of drinking water) to induce atrophy. […] Body weight was measured daily. Body composition was measured by qNMR to determine lean mass pre-dosing, at day 7, and at day 14. After 14 days of dexamethasone exposure, the animals were terminated, and body weight and gastrocnemius weight were measured. Terminal blood for each animal was also collected.
C57BL6 male mice (n=8) at 13-14 weeks of age were given normal drinking water or water containing dexamethasone at a concentration of 2.5 mg/kg to induce atrophy. Mice were dosed at day 1 and day 7 with vehicle (PBS), IgG control (“hIgG”) or different doses of the test antibodies, as shown in Table 13. Muscle mass at days −1, 6 and 13 was measured using qNMR. At the end of the study (day 14), serum from each animal was collected and changes in body weight, body composition (qNMR), left and right gastrocnemius weight, and left and right quadriceps weight were measured. Statistical analysis was performed by ANOVA (Dunnett's multiple comparison test).
In a third experiment, antibody doses ranging from 0.3 mg/kg to 10 mg/kg were compared for their effectiveness in attenuating dexamethasone-induced atrophy. C57BL6 male mice (n=8) at 13-14 weeks of age were given normal drinking water or water containing dexamethasone at a concentration of 2.5 mg/kg to induce atrophy. Mice were dosed at day 1 and day 7 with vehicle (PBS), human IgG control (“hIgG”) or different doses of the test antibodies, as shown in Table 14 below. qNMR was used to measure muscle mass at days −1, 6 and 13. At day 14 the study ended, serum was collected and changes in body composition (qNMR), left and right gastrocnemius weight, and left and right quadriceps weight were determined. Circulating myostatin was measured in the serum of a terminal bleed taken at day 14. Statistical analysis was performed by ANOVA (Dunnett's multiple comparison test).
In a fourth experiment, antibodies Ab109 and Ab133 were compared to control human IgG and Ab2 in the same protocol as described above.

Data set [6] deals with total myostatin. In words: circulating total myostatin in serum by ELISA after acidification, dexamethasone study. Type of data set: in vivo, mouse. The following applies: statement in description. How it is done:
An assay of the target engagement of the antibodies, i.e., a pharmacodynamic assay, can be performed by measuring the binding of the antibodies to myostatin. In some embodiments, myostatin is detected as described by Lakshman et al. (Mol. Cell. Endocrinol. (2009) 302(1): 26-32), the contents of which are incorporated herein in their entirety. In some embodiments, samples are treated with acid to convert all myostatin forms to the mature growth factor; a biotinylated capture antibody that is specific for mature myostatin is added to a streptavidin coated plate and detected with a labeled antibody that is specific for mature myostatin.
Briefly, serum samples were acidified at low pH (e.g., pH ~2.5) to dissociate the bound antibody from the immune complex and to convert all myostatin in the sample to the active form of growth factor (i.e., mature myostatin). Samples were then neutralized and assayed for the presence of mature myostatin on ELISA plates coated with anti-mature myostatin antibodies as capture reagents.
(In general: In an ELISA, binding on a coated surface is turned into a signal by an enzyme label.)

Data set [7] addresses T1, human pro-myostatin. In words: SEC-MALS binding stoichiometry. Conditions: for Observed Molecular Weight / Predicted Molecular Weight / Difference Observed vs. Predicted: mAb:pro-myostatin complex; for Difference Observed vs. Predicted: < / > = observed below / above predicted. How it is done: A combination of size exclusion chromatography and multi-angle light scattering (SEC-MALS) was used to determine the approximate mass and therefore the oligomeric state of the antibodies and their stoichiometry of binding to human promyostatin. The monoclonal antibody (mAb) or its Fab fragment was mixed with 50 μg of human pro-myostatin at a ratio of 1:1, 2:1 or 3:1 (antibody to antigen) for at least 24 hours at room temperature for immune complexes to form, filtered and injected into an analytical SEC column (Waters HPLC with a Superdex 200 10/300), flowed through a refractive index detector and then a miniDAWN® multi-angle light scattering detector to determine the mass. A full-length human-pro-myostatin with an N-terminal His6 tag (SEQ ID NO: 941) was used to express pro-myostatin in HEK cells. The signal peptide present in the construct is cleaved during biosynthesis. The resulting recombinant human pro myostatin was purified using the His6 tag (SEQ ID NO: 941) and used for the experiment.

Data set [8] can be described thus: semaglutide plus Ab109 or Ab141 in diet-induced obesity mice (Example 5). It is filed as in vivo, mouse. The following applies: with semaglutide 0.040 mg/kg daily; FIGS. 13A-B. How it is done: Male C57/BL6 mice were a high-fat diet containing 60% fat then switched to a diet containing 45% fat. […] Body weight and body composition determined by qNMR were recorded at days 7, 14, and 21 after dosing. Gastrocnemius weight, inguinal, and perigonadal fat pad weights were recorded at the end of the study. Liver and terminal blood were collected to measure the levels of glucose and insulin.

Data set [9] can be described thus: serum antibody exposure (PK) in obese mice with or without semaglutide (Example 8). Type of data set: in vivo, mouse. Conditions: 0.1 to 3 mg/kg i.p. days 0, 7, 14, alone or with semaglutide; FIG. 16A. How it is done: (§2) Male 19 week old C7/BL6 mice fed a high fat diet to induce obesity (DIO-B6-M mice, were evaluated for the effect of the combination of antibody and semaglutide on the exposure of the antibody to the target antigen (PK) and the total myostatin serum level (PD), as shown in Table 25. Animals were dosed with antibody intraperitoneally on days 0, 7, and 14 and were dosed with semaglutide subcutaneously daily throughout the study. Exposure of the antibody to immobilized promyostatin was determined by ELISA. Total serum myostatin was also measured by ELISA. The study concluded on day 22, when terminal bleeds were obtained.

Data set [10] deals with total myostatin. In words: total serum myostatin (PD) in obese mice with or without semaglutide (Example 8). Type of data set: in vivo, mouse. Conditions: 0.1 to 3 mg/kg, alone or with semaglutide; FIG. 16B. As for the experimental part:
as §2

Data set [11] concerns the target T2, free latent myostatin (Mus musculus, UniProt O08689).
T2 construct: from tissue; host or cells: mouse serum
In words: serum free latent myostatin in obese mice with or without semaglutide (Example 8). It is filed as in vivo. The following applies: in presence or absence of semaglutide, day 22; FIG. 16C.
Excerpt: In another embodiment, a pharmacodynamic assay, can be performed by measuring the binding of the antibodies to serum free latent myostatin (i.e., circulating latent myostatin that is not bound by the antibody). Such an assay may immobilize streptavidin, bind a biotinylated antibody known to bind latent myostatin, add latent myostatin, and test the ability of an antibody to bind to the free latent myostatin by labeling the test antibody with a detectable marker. […] In such an embodiment, the detection range of the assay may be in the nanogram range, e.g., 0.1 ng/ml-750 ng/ml, 1.0 ng/ml-500 ng/ml, or 3.0 ng/ml-500 ng/ml, e.g., 3.9-500 ng/mL. […]
as §2

Changes are numbered by the printed parent chain.

B1: Ab102: anti-pro/latent myostatin antibody; CDR sequences in Table 2d (antibody)
heavy: EVQLVESGGGLVQPGGSLRLSCAASGFTFTSYGMSWVRQAPGKGLELVASITGSGGETYYPDSVKGRFTISRDNAKNSLYLQMNSLRAEDTAVYYCARDLLVRFLEWSHYYGMDVWGQGTTVTVSSASTKGPSVFPLAPCSRSTSESTAALGCLVKDYFPEPVTVSWNSGALTSGVHTFPAVLQSSGLYSLSSVVTVPSSSLGTKTYTCNVDHKPSNTKVDKRV[human IgG4 Fc with S228P (EU numbers) left out]
light: DIVMTQSPLSLPVTPGEPASISCRSSQSLLHSSGHNFLHWYLQKPGQSPQLLIYETSNRAPGIPDRFSGSGSGTDFTLKISRVEAEDVGVYYCMQATQFPRPFGGGTKVEIKRTVAAPSVFIFPPSDEQLKSGTASVVCLLNNFYPREAKVQWKVDNALQSGNSQESVTEQDSKDSTYSLSSTLTLSKADYEKHKVYACEVTHQGLSSPVTKSFNRGEC
Take B1: the “Ka” value in data set [1] turned out to be 6.49e+06 M⁻¹ s⁻¹; in [2], 6.11e+06 M⁻¹ s⁻¹; in [3], 6.8e+06 M⁻¹ s⁻¹. Also, the “Kd (1/s)” value in data set [1] came to 0.000376 s⁻¹; in [2] it was 0.0005 s⁻¹; in data set [3] it was 0.000335 s⁻¹. In data set [4], the “aggregation behavior by AC-SINS” value was “did not display aggregation behavior”. The “maintenance of body weight (percent change from baseline)” value in [5] (antibody 3 mg/kg/day, FIG. 6A, 9A) is listed as “to a greater extent than Ab2”. Further, the “preservation of lean mass by qNMR” value in data set [5] (antibody 3 mg/kg/day, FIG. 6B, 9B) is reported as “to a greater degree than the 10 mg/kg/day dose of Ab2”. In [5] (antibody 3 mg/kg/day, FIG. 6C, 9C), the “preservation of gastrocnemius weight” value is on record as “highly effective in preserving gastrocnemius weight”. Further, in data set [6], the “accumulation of myostatin in serum of dosed subjects, compared with apitegromab” value (from here on “accumulation … compared with apitegromab”) is “reduced accumulation of circulating latent myostatin”.

B2: Ab133: anti-pro/latent myostatin antibody; CDR sequences in Table 2d (antibody)
heavy: EVQLVESGGGLVQPGGSLRLSCAASGFTFSSYGMSWVRQAPGKGLELVASFTGSGGAYYPDSVKGRFTISRDNAKNSLYLQMNSLRAEDTAVYYCARDLLIRFLEWSHYYGMDVWGQGTTVTVSSASTKGPSVFPLAPCSRSTSESTAALGCLVKDYFPEPVTVSWNSGALTSGVHTFPAVLQSSGLYSLSSVVTVPSSSLGTKTYTCNVDHKPSNTKVDKRV[human IgG4 Fc with S228P (EU numbers) left out]
light: B1 light with T56V, A60V, P61S, I63V, M94Q, A96Q, F99Y, R101G, P102T
As for B2, the “Ka” value in data set [1] came to 2.84e+06 M⁻¹ s⁻¹; in data set [2], 3.01e+06 M⁻¹ s⁻¹; in data set [3], 2.86e+06 M⁻¹ s⁻¹. Also, the “Kd (1/s)” value in data set [1] came to 0.000116 s⁻¹; in data set [2], 0.000162 s⁻¹; in data set [3], 0.000109 s⁻¹. Moreover, the “SEC-MALS Result (kDa)” value was 405 kDa in [7] (input ratio mAb:pro-myostatin 1:1 (peak 1)) and 302.9 kDa in [7] (input ratio mAb:pro-myostatin 1:1 (peak 2)). The entries for the “Observed Molecular Weight” value in data set [7] (Peak 1) and in data set [7] (Peak 2) were 405.0 kDa and 302.9 kDa, respectively. For the same molecule, the “Predicted Molecular Weight” value is recorded as 398.99 kDa in data set [7] (Peak 1) and 329.58 kDa in [7] (Peak 2). Further, the “Difference Observed vs. Predicted” value is more than 6.01 kDa in [7] (Peak 1) and less than 26.68 kDa in data set [7] (Peak 2). The “aggregation behavior by AC-SINS” value in data set [4] was “did not display aggregation behavior”. For the same molecule, the body weight entry in data set [5] (fourth experiment, FIG. 10A) was “prevented dexamethasone-induced weight loss”. In data set [5] (fourth experiment, FIG. 10B), the “lean mass by qNMR” value is reported as “attenuated the loss of lean mass”. Further, the “accumulation … compared with apitegromab” value in data set [6] is recorded as “reduced accumulation of circulating latent myostatin”.

B3: Ab141: anti-pro/latent myostatin antibody; CDR sequences in Table 2d (antibody)
heavy: B2 heavy
light: B1 light with T56V, A60V, P61S, I63V, A96Q, F99Y, R101G, P102T
Regarding B3, the “Ka” value stood at 2.79e+06 M⁻¹ s⁻¹ in data set [1] and 2.93e+06 M⁻¹ s⁻¹ in data set [2]. The entries for the “Kd (1/s)” value in data set [1] and in data set [2] were 0.000112 s⁻¹ and 0.000156 s⁻¹, respectively. For the same molecule, the “aggregation behavior by AC-SINS” value in data set [4] is listed as “did not display aggregation behavior”. Also, in data set [6], the “accumulation … compared with apitegromab” value was “reduced accumulation of circulating latent myostatin”. Further, in data set [8], the “fat mass loss (subcutaneous and epididymal adipose tissue weight)” value is listed as “increased fat mass loss as compared to Ab109 or Ab141 alone”. Further, in data set [9], the “serum exposure of antibody (PK)” value was “dose proportional between 0.1 and 3 mg/kg”. Also, the serum total myostatin entry in data set [10] is reported as “not affected by the presence of semaglutide”. Besides, the “serum free latent myostatin (not bound by antibody)” value in data set [11] is listed as “reduced below the level of quantitation”.

Values taken from US20260209325A1, “SELECTIVE AND POTENT INHIBITORY ANTIBODIES OF MYOSTATIN ACTIVATION” (SCHOLAR ROCK, INC., priority 2022, published 2026).
